Compound in the assay: CCc1nc(-c2cccc(C)c2)c(-c2ccnc(NC(=O)c3ccccc3)c2)s1 [TAK-715]
In words: Viability of human cancer cell lines after 72 h of drug (GDSC screen). The conditions noted are these: top dose inferred. On the procedure:
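Human cancer cell lines in 384-well plates, medium with 10% serum, drug for 72 h over a 256-fold dose range (nine 2-fold or five 4-fold steps up to the top dose). Adherent lines were fixed and stained with the nucleic acid dye Syto60, suspension lines read with resazurin; signal relative to control wells, capped at 0 and 100%. One two-parameter sigmoid per drug and line, fitted in a mixed model over all curves with the slope shared within a line.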

The IC50 comes from the fitted curve, where viability falls to half of the control; where the fit passes the top or lowest dose, that dose stands as a limit. AUC sums up the same curve from the lowest dose to the 256-fold higher top dose: 1 means no effect, lower means more sensitive. Any top dose called inferred comes from the curve model; the source does not state it.

What is called IC50 is the point on the concentration scale where inhibition reaches its midpoint. In the case of “OE19 (oesophagus, adherent, top dose 20 µM)”, the AUC is 0.98 and the IC50 is > 20 µM.

For “OE21 (oesophagus, adherent, top dose 20 µM)”, the AUC came to 0.978 and the IC50 was > 20 µM.

Regarding “OE33 (oesophagus, adherent, top dose 20 µM)”, the AUC was 0.979 and the IC50 is > 20 µM.

As to “OMC-1 (cervix, adherent, top dose 20 µM)”, the AUC came to 0.942 and the IC50 was > 20 µM.

As for “ONS-76 (medulloblastoma, adherent, top dose 20 µM)”, the AUC is 0.949 and the IC50 was > 20 µM.

Regarding “OPM-2 (myeloma, suspension, top dose 20 µM)”, the AUC came to 0.898 and the concentration for half-maximal inhibition (IC50) is 16.9 µM.

Take “OS-RC-2 (kidney, adherent, top dose 20 µM)”: the AUC worked out at 0.906 and the IC50 is > 20 µM.

In the case of “OSC-19 (head and neck, adherent, top dose 20 µM)”, the AUC was found to be 0.94 and the IC50 is > 20 µM.

For “OSC-20 (head and neck, adherent, top dose 20 µM)”, the AUC was 0.927 and the IC50 was > 20 µM.

Turning to OV-7 (ovary, adherent, top dose 20 µM), the AUC was determined as 0.933 and the IC50 was > 20 µM.

For the cell line “OV-17R (ovary, adherent, top dose 20 µM)”, the AUC was determined as 0.902 and the IC50 is > 20 µM.

For OV-56 (ovary, adherent, top dose 20 µM), the AUC stood at 0.967 and the IC50 is > 20 µM.

On to OV-90 (ovary, adherent, top dose 20 µM), for which the AUC amounted to 0.91 and the IC50 is > 20 µM.

With “OVCA420 (ovary, adherent, top dose 20 µM)”, the AUC stood at 0.973 and the IC50 is > 20 µM.

Regarding “OVCA433 (ovary, adherent, top dose 20 µM)”, the AUC amounted to 0.939 and the IC50 is > 20 µM.

With “OVCAR-3 (ovary, adherent, top dose 20 µM)”, the AUC was determined as 0.979 and the IC50 is > 20 µM.

“OVCAR-4 (ovary, adherent, top dose 20 µM)”: the AUC turned out to be 0.871 and the IC50 is > 20 µM.

Consider “OVCAR-5 (ovary, adherent, top dose 20 µM)”, for which the AUC turned out to be 0.964 and the IC50 is > 20 µM.

Consider “OVCAR-8 (ovary, adherent, top dose 20 µM)”, for which the AUC turned out to be 0.972 and the IC50 was > 20 µM.

On to OVISE (ovary, adherent, top dose 20 µM), for which the AUC was 0.92 and the IC50 is > 20 µM.

In the case of “OVK-18 (ovary, adherent, top dose 20 µM)”, the AUC turned out to be 0.938 and the IC50 is > 20 µM.

With “OVKATE (ovary, adherent, top dose 20 µM)”, the AUC worked out at 0.972 and the IC50 was > 20 µM.

Consider OVMIU (ovary, adherent, top dose 20 µM), for which the AUC was determined as 0.891 and the IC50 was > 20 µM.

Turning to “OVTOKO (ovary, adherent, top dose 20 µM)”, the AUC worked out at 0.918 and the IC50 was > 20 µM.

Turning to “P12-ICHIKAWA (T-cell lymphoblastic leukaemia, suspension, top dose 20 µM)”, the AUC came to 0.745 and the IC50 was 5.12 µM.

For the cell line “P30-OHK (lymphoblastic leukaemia, suspension, top dose 20 µM)”, the AUC was 0.884 and the IC50 came out at 15.5 µM.

As for “P31-FUJ (acute myeloid leukaemia, suspension, top dose 20 µM)”, the AUC came to 0.978 and the IC50 was > 20 µM.

As for “P32-ISH (Burkitt lymphoma, suspension, top dose 20 µM)”, the AUC was determined as 0.908 and the IC50 amounted to 15.2 µM.

In the case of PA-1 (ovary, adherent, top dose 20 µM), the AUC amounted to 0.805 and the IC50 was 7.6 µM.

For “PA-TU-8902 (pancreas, adherent, top dose 20 µM)”, the AUC was determined as 0.946 and the IC50 is > 20 µM.

Turning to “PA-TU-8988T (pancreas, adherent, top dose 20 µM)”, the AUC was determined as 0.948 and the IC50 is > 20 µM.

With “PANC-02-03 (pancreas, adherent, top dose 20 µM)”, the AUC amounted to 0.962 and the IC50 was > 20 µM.

Turning to “PANC-03-27 (pancreas, adherent, top dose 20 µM)”, the AUC was 0.925 and the IC50 is > 20 µM.

For the cell line “PANC-04-03 (pancreas, adherent, top dose 20 µM)”, the AUC was 0.978 and the IC50 is > 20 µM.

“PANC-08-13 (pancreas, adherent, top dose 20 µM)”: the AUC came out at 0.977 and the IC50 was > 20 µM.

In the case of “PANC-10-05 (pancreas, adherent, top dose 20 µM)”, the AUC was determined as 0.936 and the half-inhibitory concentration (IC50) was > 20 µM.

Take “PC-3 (prostate, adherent, top dose 20 µM)”: the AUC was found to be 0.901 and the 50% inhibitory concentration (IC50) was > 20 µM.

Regarding “PC-3 [JPC-3] (lung adenocarcinoma, adherent, top dose 20 µM)”, the AUC was found to be 0.592 and the IC50 came out at 2.43 µM.

As for “PC-14 (lung adenocarcinoma, adherent, top dose 20 µM)”, the AUC turned out to be 0.875 and the IC50 amounted to 16 µM.

Regarding “PCI-4B (head and neck, adherent, top dose 20 µM)”, the AUC is 0.904 and the IC50 is > 20 µM.

Turning to “PCI-6A (head and neck, adherent, top dose 20 µM)”, the AUC turned out to be 0.858 and the IC50 was 15.9 µM.

Turning to “PCI-15A (head and neck, adherent, top dose 20 µM)”, the AUC is 0.897 and the IC50 was > 20 µM.

Take “PCI-30 (head and neck, adherent, top dose 20 µM)”: the AUC came to 0.979 and the IC50 was > 20 µM.

For the cell line “PCI-38 (head and neck, adherent, top dose 20 µM)”, the AUC was found to be 0.941 and the IC50 is > 20 µM.

Consider “PE/CA-PJ15 (head and neck, adherent, top dose 20 µM)”, for which the AUC worked out at 0.957 and the concentration for half-maximal inhibition (IC50) was > 20 µM.

For PEO1 (ovary, adherent, top dose 20 µM), the AUC was determined as 0.952 and the IC50 was > 20 µM.

Take “PF-382 (T-cell lymphoblastic leukaemia, suspension, top dose 20 µM)”: the AUC is 0.863 and the concentration for half-maximal inhibition (IC50) came out at 13.9 µM.

In the case of “PFSK-1 (medulloblastoma, adherent, top dose 20 µM)”, the AUC was 0.959 and the IC50 was > 20 µM.

For “PL4 (pancreas, adherent, top dose 20 µM)”, the AUC is 0.966 and the IC50 was > 20 µM.

For the cell line “PL18 (pancreas, adherent, top dose 20 µM)”, the AUC came out at 0.974 and the half-maximal inhibitory concentration (IC50) is > 20 µM.

Take “PL-21 (acute myeloid leukaemia, suspension, top dose 20 µM)”: the AUC worked out at 0.809 and the IC50 turned out to be 12.6 µM.

Source of the values: the supplement of paper PMC4967469.
